PubChem BioAssay AID1346428 (National Center for Advancing Translational Sciences (NCATS), 2018)
Out of some 48,000 compounds screened, about 1,200 (2.5%) were called active. About 2% were inconclusive and are not listed.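 Rule for the calls: active = activation of at least 60% and not above a set upper limit (about 1 call in 100 departs from these limits); inconclusive = activation of 40% to 60%, or above that upper limit; inactive = activation under 40%.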 The list shows a part of the results.

Target: Probable G-protein coupled receptor 32 (Homo sapiens) (UniProt O75388)
Experiment: qHTS for Agonists of Human Resolvin D1 Receptor DRV1; note: 0% is about no effect
Details: CHO-K1 GPR32 beta-arrestin PathHunter luminescence, 90 min; at 76.9 µM; hits give high values; zero percent set by DMSO-only wells
Summary of the method: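 Luminescent readout of beta-Gal complementation quantifies ligand-induced beta-arrestin association with GPR32 in CHO-K1 cells; 90 min compound incubation at 37 °C, detection 1 h at room temperature.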

Sequence of UniProt O75388 (O75388 whole entry, looked up): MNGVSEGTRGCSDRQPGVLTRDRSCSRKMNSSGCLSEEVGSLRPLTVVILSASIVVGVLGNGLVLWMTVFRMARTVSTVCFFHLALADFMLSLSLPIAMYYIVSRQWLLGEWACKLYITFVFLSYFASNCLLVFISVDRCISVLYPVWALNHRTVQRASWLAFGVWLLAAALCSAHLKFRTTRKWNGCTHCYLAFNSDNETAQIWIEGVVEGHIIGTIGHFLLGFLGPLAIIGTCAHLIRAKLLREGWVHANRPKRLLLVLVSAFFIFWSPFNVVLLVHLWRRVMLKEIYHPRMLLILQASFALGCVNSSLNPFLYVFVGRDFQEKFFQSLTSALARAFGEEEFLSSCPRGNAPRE

SMILES | activation
CCC1=Nc2cc(C(=O)NCCCOC(C)C)ccc2Sc2ccc(C)cc21 | inactive: -30.2%
Cc1cc2oc(C(=O)N(Cc3ccc(N(C)C)cc3)CC3CCCO3)c(C)c2cc1C (stereo not drawn) | inactive: -22.5%
O=C(NCc1ccc(Cl)cc1)C1(c2cccs2)CCOCC1 | inactive: 6.2%
O=C(Nc1ccc(NC(=O)c2cccs2)cc1)c1ccc(Cl)cc1 | inactive: 13.8%
COC(=O)c1ccccc1NC(=O)Cn1ncc2c(C)n(Cc3ccc(F)cc3)c(C)c2c1=O | inactive: -5.49%
Cc1ccc(OCCSc2nc3ccccc3n2CC(=O)N2CCCCC2)cc1C | inactive: 2.9%
COC(=O)c1ccccc1NC(=O)CCn1nc(C)c2c(C)n(-c3ccccc3)nc2c1=O | inactive: -10.4%
CC(=O)c1cccc(Nc2cc(C)nc3nc(-c4ccccc4C)nn23)c1 | inactive: -24.9%
C/C=C/CC(C)C(O)C1C(=O)NC(CC)C(=O)N(C)CC(=O)N(C)C(CC(C)C)C(=O)NC(C(C)C)C(=O)N(C)C(CC(C)C)C(=O)NC(C)C(=O)NC(C)C(=O)N(C)C(CC(C)C)C(=O)N(C)C(CC(C)C)C(=O)N(C)C(C(C)C)C(=O)N1C (stereo not drawn) | inactive: -25.3%
COc1ccc2oc(=O)c(-c3nc4ccc(C)cc4[nH]3)cc2c1 | inactive: 3.5%
O=C(COc1ccccc1F)Nc1ccc2nc(SCc3ccccc3)sc2c1 | inactive: 35.6%
CCC(=O)N1CCc2cc(S(=O)(=O)NCCC(=O)Nc3cccc(SC)c3)ccc21 | inactive: 34.2%
CCOC(=O)c1cc(-c2ccc(F)cc2)n(CCC(=O)NCc2ccc(C)cc2)c1C | inactive: -31.8%
Cc1ccc(-n2ncc(C(=O)N3CCN(c4cccc(C)c4C)CC3)c2C2CCNCC2)c(C)c1 | inactive: 22.8%
COc1ccc(Br)cc1CC1C(=O)Nc2ccccc21 (stereo not drawn) | inactive: 21.9%
COc1ccccc1NC(=O)C1=C(C)Nc2nc(SCc3ccccc3Cl)nn2C1c1cccnc1 (stereo not drawn) | inactive: 2.99%
CN(C(=O)NCc1noc2ccccc12)c1cccc(Cl)c1 | inactive: -11.6%
Cc1ccc2c(c1)sc1nc(=O)n(-c3cccc(Cl)c3)c(=O)n12 | inactive: -1.67%
CCCN1C(C(=O)c2ccccc2)=C(OC(=O)C(C)(C)C)c2ccccc2S1(=O)=O | inactive: -36.7%
Cc1ccc(NC(=O)CN2CCN(C3CCCCC3)C(=O)C2=O)cc1C | inactive: 0.0016%
CCCCc1nn2c(C)c(-c3ccc(OCC)cc3)nc2s1 | inactive: 5.24%

SMILES | activation
Cc1cc(Cl)ccc1NS(=O)(=O)c1cc2[nH]c(=O)c(=O)[nH]c2cc1C | inactive: 13.2%
Cc1ccc(-n2c(=O)[nH]c3sc4c(c3c2=O)CCNC4)cc1C | inactive: 6.23%
Cc1ccc(NC(c2cccc(Cl)c2)c2nnc(-c3ccccc3)o2)cc1F (stereo not drawn) | inactive: -26.5%
CCOC(=O)C1CCN(C(=O)Cn2nc(CC)n3c(cc4occc43)c2=O)CC1 | inactive: -12.7%
O=C(Cn1ncc2c3ccccc3n(Cc3cccc(Cl)c3)c2c1=O)N1CCCCC1 | inactive: -18.8%
COc1ccc(CN2C(=O)c3ccccc3C2C(=O)NC2CCCCCC2)c(OC)c1 (stereo not drawn) | inactive: -3.57%
CCc1ccc(C2CC(=O)N(c3cccc(C(F)(F)F)c3)C3=C2C(=O)OC3)cc1 (stereo not drawn) | inactive: 25.7%
CCOCCc1nn2c(=O)cc(COC(=O)c3ccc(NC(=O)c4ccc(F)cc4)cc3)nc2s1 | inactive: 19.8%
COc1cc(NC(=O)Cn2c(=O)n(CC3CCCO3)c(=O)c3cc(OC)c(OC)cc32)cc(OC)c1 (stereo not drawn) | inactive: -0.593%
COc1ccccc1C(=O)NCCc1csc(-c2ccc(C(F)(F)F)cc2)n1 | inactive: 12%
Cc1ccc(C)c(NC2=C(c3ccc(C(F)(F)F)cc3)C(=O)c3ccccc32)c1 | inactive: -16.7%
CC[C@H](C)C(=O)O[C@H]1C[C@@H](C)C=C2C=C[C@H](C)[C@H](CC[C@@H]3C[C@@H](O)CC(=O)O3)[C@H]21 | inactive: 41%
CC(=O)N1CCc2cc(CNC(=O)Nc3ccccc3C(F)(F)F)ccc21 | inactive: 9%
Clc1ccc(C(Cn2ccnc2)OCc2ccc(Sc3ccccc3)cc2)c(Cl)c1 (stereo not drawn) | inactive: -10.1%
COc1ccc2c(CNC3CCC(C)CC3)c(C(=O)O)n(Cc3ccccc3)c2c1 (stereo not drawn) | inactive: 39%
Cc1cccc(Cn2nnc3c(=O)[nH]c(C4CCCN(C(=O)c5ccc(C(C)(C)C)cc5)C4)nc32)c1 (stereo not drawn) | inactive: -13.1%
CCCN1CCCc2cc(CN(CCCN3CCOCC3)C(=O)Nc3ccc(OCC)cc3)ccc21 | inactive: 17%
CCOc1ccccc1CNC(=O)C1CCN(Cc2cc3ccccc3n2Cc2ccccc2)CC1 | inactive: -24.1%
Cc1ccc(-c2cn3nc(N4CCC(C(=O)Nc5ccccc5C)CC4)sc3n2)cc1 | inactive: 0.322%
Cn1c2ccccc2c2c(C(=O)N3CCN(c4cccc(C(F)(F)F)c4)CC3)cn(C3CCCCC3)c(=O)c21 | inactive: -30.2%
CCC(C(=O)Nc1cc(OC)ccc1OC)n1nc(-c2ccccc2)c2c(c1=O)CCCC2 (stereo not drawn) | inactive: -23.4%

SMILES | activation
CN(C)S(=O)(=O)N(CC(=O)NCCSc1ccc(Cl)cc1)c1ccccc1 | active: 69.9%
Cc1ccc2oc(C(=O)Nc3ccc(S(=O)(=O)Nc4ncccn4)cc3)cc(=O)c2c1 | inactive: -7.95%
O=C(COCc1cc(-c2ccc3c(c2)OCO3)on1)N1CCN(c2cccc(C(F)(F)F)c2)CC1 | inactive: -25.8%
COc1cc2nc(NC(=O)c3ccc(S(=O)(=O)N4CCCC4)cc3)sc2cc1OC | inactive: 33.2%
CN1C(C(=O)NC(C)(C)C)=CC(c2ccc3c(c2)OCO3)=NS1(=O)=O | inactive: -2.88%
Cc1cc(C)c2oc(C(=O)Nc3nc4ccc(Cl)cc4s3)cc(=O)c2c1 | inactive: -8.91%
Cc1ccc(-n2ccnc(NCc3cccs3)c2=O)cc1C | inactive: 45.1%
Cc1cccc(Cn2c(SCc3ccc(C(=O)NCc4ccccc4F)cc3)nc3cccnc32)c1 | inactive: -9.59%
CCCS(=O)(=O)c1nc(S(=O)(=O)c2ccc(C)cc2)c(NC(C)c2ccccc2)s1 (stereo not drawn) | inactive: -24.7%
Nc1nonc1-c1nc2ccccc2n1CC(=O)Nc1ccc(F)cc1 | inactive: -10.4%
CC(=O)c1cc(-c2ccccc2)n(CC(=O)Nc2ccc(C)cc2C)c1C | inactive: -5.28%
Fc1ccc(C(c2ccc(F)cc2)N2CCNCC2)cc1 | inactive: -8.58%
Cc1ccc(-c2nc(CS(=O)CC(=O)O)c(C)o2)cc1 (stereo not drawn) | inactive: 1.24%
Cc1ccc(S(=O)(=O)c2cn(CC(=O)Nc3ccccc3)c3cc4c(cc3c2=O)OCO4)cc1 | inactive: -5.87%
CCOc1ccccc1NC(=O)NC(CC)c1c(-n2cccc2)sc2c1CCN(C)C2 (stereo not drawn) | inactive: -23%
CCc1ccc(Nc2nc3ccccc3c3nnc(C)n23)cc1 | inactive: -8.75%
Cc1cccc(N2CCN(C(=O)c3ccc4c(c3)CCN4S(=O)(=O)c3ccccc3)CC2)c1C | inactive: -15%
CCc1ccccc1NC(=O)CSc1nccn1C | inactive: 1.19%
CCc1ccc(S(=O)(=O)c2nnn3c2nc(NCCC(C)C)c2cc(Cl)ccc23)cc1 | inactive: -14%
CCOC(=O)c1cc(OC(=O)c2cc(Cl)ccc2OC)n(-c2ccccc2)n1 | inactive: 39.1%
CCCN(CCC)S(=O)(=O)c1ccc(C(=O)N2CCn3c4c(c5cc(C)ccc53)CCCC42)cc1 (stereo not drawn) | inactive: -24.6%

SMILES | activation
O=C(COc1ccc(Cl)cc1Cl)Nc1ccc(C(=O)OC2CCCCC2)cc1 | inactive: 3.88%
Cn1nc(C(=O)Nc2cccc(C(F)(F)F)c2)c2c1-c1ccccc1S(=O)(=O)C2 | inactive: -8.77%
CC(=O)c1ccc(OC(=O)c2c(-c3ccccc3Cl)noc2C)cc1 | inactive: -2.07%
COc1ccc2c(c1)c(CC(=O)Nc1cc(C)c(OC)c(C)c1)c(C)n2C(=O)c1ccc(Cl)cc1 | inactive: -2.54%
Cn1c(SCC(=O)Nc2ccccc2F)nc2c([nH]c3ccccc32)c1=O | inactive: -11.8%
COc1ccccc1Nc1ncnc2c1nc1n2CCCCC1 | inactive: -2.87%
CCOc1ccc(NS(=O)(=O)c2ccc3[nH]cc(C(=O)NCCc4ccccc4)c(=O)c3c2)cc1 | inactive: -4.27%
Cc1ccc(NC(=O)C2CCN(S(=O)(=O)c3c(C)noc3C)CC2)cc1C | inactive: 3.84%
Cc1ccc(CN2C(=O)N(c3ccc(C)c(Cl)c3)S(=O)(=O)c3ccccc32)cc1 | inactive: -8.18%
COc1cccc(NC(=O)CN2C(=O)C3(SCC(=O)N3c3cc(C)cc(C)c3)c3ccccc32)c1 (stereo not drawn) | inactive: 11.8%
COC(=O)c1cc2oc(C)cc2n1Cc1ccc(Cl)cc1 | inactive: -36.7%
N#Cc1ccc(NC(=O)COCc2cc(-c3ccc(F)cc3)on2)cc1 | inactive: 15.8%
O=C(Nc1ccc(Cl)cc1C(F)(F)F)c1cc(S(=O)(=O)NCc2ccccc2)ccc1F | inactive: -2.57%
CCOC(=O)C1CCN(C(=O)c2nn(-c3ccc(C)cc3)c(=O)n(C)c2=O)CC1 | inactive: -7.63%
COC(=O)c1c(-c2cccs2)csc1NC(=O)COc1ccc(C(C)C)cc1 | inactive: -22.8%
CCOc1ccc(CNC(=O)c2cnc(SC)nc2C)cc1 | inactive: 24.2%
COc1ccc(CNC(=O)CCS(=O)(=O)c2ccc3c(c2)CC(C)N3C(=O)C2CC2)cc1 (stereo not drawn) | inactive: 0.325%
CCN(CC)C(=O)C1CCN(C(=O)c2cnn(-c3ccccc3)c2-n2cccc2)CC1 | inactive: 15.2%
CCOC(=O)CSc1nc2ccccc2n2c(C)nnc12 | inactive: 22%
O=C(CSc1nccn1C1CCCC1)Nc1ccccc1 | inactive: -4.17%
